Experimental data: publication doi:10.64898/2025.12.08.692793 (bioRxiv, 2025)

What was measured:
cryo-EM structure = target: the molecule itself; assay: cryo-EM structure
cross-linking = target: the molecule itself; assay: cross-linking

B1: metabotropic glutamate receptor 2 (mGlu2) (receptor)
chain: EGPAKKVLTLEGDLVLGGLFPVHQKGGPAEDCGPVNEHRGIQRLEAMLFALDRINRDPHLLPGVRLGAHILDSCSKDTHALEQALDFVRASLSRGADGSRHICPDGSYATHGDAPTAITGVIGGSYSDVSIQVANLLRLFQIPQISYASTSAKLSDKSRYDYFARTVPPDFFQAKAMAEILRFFNWTYVSTVASEGDYGETGIEAFELEARARNICVATSEKVGRAMSRAAFEGVVRALLQKPSARVAVLFTRSEDARELLAASQRLNASFTWVASDGWGALESVVAGSEGAAEGAITIELASYPISDFASYFQSLDPWNNSRNPWFREFWEQRFRCSFRQRDCAAHSLRAVPFEQESKIMFVVNAVYAMAHALHNMHRALCPNTTRLCDAMRPVNGRRLYKDFVLNVKFDAPFRPADTHNEVRFDRFGDGIGRYNIFTYLRAGSGRYRYQKVGYWAEGLTLDTSLIPWASPSAGPLPASRCSEPCLQNEVKSVQPGEVCCWLCIPCQPYEYRLDEFTCADCGLGYWPNASLTGCFELPQEYIRWGDAWAVGPVTIACLGALATLFVLGVFVRHNATPVVKASGRELCYILLGGVFLCYCMTFIFIAKPSTAVCTLRRLGLGTAFSVCYSALLTKTNRIARIFGGAREGAQRPRFISPASQVAICLALISGQLLIVVAWLVVEAPGTGKETAPERREVVTLRCNHRDASMLGSLAYNVLLIALCTLYAFKTRKCPENFNEAKFIGFTMYTTCIIWLAFLPIFYVTSSDYRVQTTTMCVSVSLSGSVVLGCLFAPKLHIILFQPQKNVVSHRAPTSRFGSAAARASSSLGQGSGSQFVPTVCNGREVVDSTTSSL
- stoichiometry N (cryo-EM structure): 2

B2: SNAP-tagged mGlu2 WT (receptor)
chain: EGPAKKVLTLEGDLVLGGLFPVHQKGGPAEDCGPVNEHRGIQRLEAMLFALDRINRDPHLLPGVRLGAHILDSCSKDTHALEQALDFVRASLSRGADGSRHICPDGSYATHGDAPTAITGVIGGSYSDVSIQVANLLRLFQIPQISYASTSAKLSDKSRYDYFARTVPPDFFQAKAMAEILRFFNWTYVSTVASEGDYGETGIEAFELEARARNICVATSEKVGRAMSRAAFEGVVRALLQKPSARVAVLFTRSEDARELLAASQRLNASFTWVASDGWGALESVVAGSEGAAEGAITIELASYPISDFASYFQSLDPWNNSRNPWFREFWEQRFRCSFRQRDCAAHSLRAVPFEQESKIMFVVNAVYAMAHALHNMHRALCPNTTRLCDAMRPVNGRRLYKDFVLNVKFDAPFRPADTHNEVRFDRFGDGIGRYNIFTYLRAGSGRYRYQKVGYWAEGLTLDTSLIPWASPSAGPLPASRCSEPCLQNEVKSVQPGEVCCWLCIPCQPYEYRLDEFTCADCGLGYWPNASLTGCFELPQEYIRWGDAWAVGPVTIACLGALATLFVLGVFVRHNATPVVKASGRELCYILLGGVFLCYCMTFIFIAKPSTAVCTLRRLGLGTAFSVCYSALLTKTNRIARIFGGAREGAQRPRFISPASQVAICLALISGQLLIVVAWLVVEAPGTGKETAPERREVVTLRCNHRDASMLGSLAYNVLLIALCTLYAFKTRKCPENFNEAKFIGFTMYTTCIIWLAFLPIFYVTSSDYRVQTTTMCVSVSLSGSVVLGCLFAPKLHIILFQPQKNVVSHRAPTSRFGSAAARASSSLGQGSGSQFVPTVCNGREVVDSTTSSL
modifications: fluorophore covalently attached (SNAP tag)
- stoichiometry N (cross-linking): 2
